Experimental data from the BET-seq Pho4 binding data (Le et al. 2018).
The other results are listed elsewhere or left out. These are noisy estimates, calculated here from bound and input reads.

Molecular target: T1, Pho4 (S. cerevisiae) (UniProt P07270)
T1 sequence: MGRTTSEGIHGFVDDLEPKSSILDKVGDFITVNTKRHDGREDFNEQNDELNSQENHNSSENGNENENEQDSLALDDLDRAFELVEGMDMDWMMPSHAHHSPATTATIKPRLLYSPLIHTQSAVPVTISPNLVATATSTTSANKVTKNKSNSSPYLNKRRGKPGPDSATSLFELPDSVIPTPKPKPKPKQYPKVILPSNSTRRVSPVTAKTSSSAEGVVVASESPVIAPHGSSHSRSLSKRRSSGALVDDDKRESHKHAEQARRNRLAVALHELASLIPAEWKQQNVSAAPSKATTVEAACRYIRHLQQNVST
Assay: relative binding free energy (BET-seq); higher = weaker binding
Conditions: reference: library average

| Sequence | relative binding free energy [kcal/mol] |
| --- | --- |
| GGATTCACGTGTTTTG | 0.51 |
| TCTGGCACGTGGTGTG | -0.19 |
| GGAGTCACGTGAAGTT | 0.42 |
| AGAATCACGTGAGGTA | 0.43 |
| GGAGACACGTGATGTT | 0.2 |
| AGGGGCACGTGAGAAA | 0.33 |
| TTGGGCACGTGCCGCT | -0.15 |
| TGTAGCACGTGGTGCT | -0.14 |
| AAGGGCACGTGAGTGA | 0.23 |
| GTTGTCACGTGTGACT | 0.3 |
| GATGTCACGTGATCGG | 0.21 |
| GGGTCCACGTGGGTCT | -0.15 |
| ATTCTCACGTGGGGTT | 0.02 |
| TAGTTCACGTGGCGAT | 0.21 |
| CTATTCACGTGGTGTT | 0.1 |
| GGAGGCACGTGTCAGG | -0.22 |
| GGAAGCACGTGGACGG | -0.12 |
| TGTGTCACGTGGTCTT | 0.07 |
| GGGGTCACGTGTATGC | 0.12 |
| GGCATCACGTGAGTTG | 0.38 |
| CGAATCACGTGGAGTG | 0.12 |
| GAAGGCACGTGTTATG | -0.11 |
| GGGGCCACGTGTGTGA | 0 |

| Sequence | relative binding free energy [kcal/mol] |
| --- | --- |
| TGTGTCACGTGATCTG | 0.03 |
| GATTTCACGTGCGGTA | 0.37 |
| GGGTCCACGTGAGTAT | 0.17 |
| GCGCACACGTGGGGGT | -0.03 |
| TATTTCACGTGGCATT | 0.11 |
| CTGTCCACGTGGTAGT | -0.14 |
| TTTCTCACGTGGACGT | 0.2 |
| GTAAACACGTGTGTTG | 0.08 |
| TTAGGCACGTGTCCGG | -0.04 |
| TATTTCACGTGTGTTT | 0.29 |
| AGTTTCACGTGCTTAG | 0.09 |
| GAGTACACGTGGTGGG | 0.07 |
| TATTTCACGTGGCGTT | 0.2 |
| ATGGGCACGTGTAGAG | -0.06 |
| CGGATCACGTGGGAGG | -0.05 |
| TGTTTCACGTGGTATT | 0.16 |
| GCGGCCACGTGGGCGT | -0.17 |
| CAAGGCACGTGGTTGA | -0.06 |
| TAGTGCACGTGAGTGT | 0.19 |
| ACATGCACGTGGTTTA | 0.01 |
| GGCTACACGTGTGGGA | 0.18 |
| GGAGGCACGTGTAGTC | -0.09 |
| GGGAGCACGTGACTGG | -0.13 |

| Sequence | relative binding free energy [kcal/mol] |
| --- | --- |
| GGGGGCACGTGAGAGT | 0.19 |
| TCAGGCACGTGAGAGG | 0.19 |
| GTCGTCACGTGGTCTG | 0.03 |
| TGGGACACGTGTTAAG | 0.06 |
| TTGCTCACGTGGACGG | 0.35 |
| TGAGGCACGTGTAAGT | 0.07 |
| TATATCACGTGAGTCG | 0.33 |
| GGACTCACGTGTGCGG | 0.28 |
| AGCGGCACGTGAGATG | 0.29 |
| GTGGACACGTGTGGGC | 0.08 |
| TGACTCACGTGTGGTG | 0.28 |
| CAGAGCACGTGGGGCT | -0.27 |
| GGAAGCACGTGAGTCG | 0.27 |
| GATTACACGTGTTTTG | 0.2 |
| GTCGGCACGTGTAGGT | 0.01 |
| GGGCGCACGTGAGGCT | 0.1 |
| TTACTCACGTGTGAGG | 0.21 |
| TCGTTCACGTGTAGCG | 0.26 |
| ACGGGCACGTGGGGGG | -0.22 |
| GAATACACGTGTGGGC | 0.11 |
| CGGGTCACGTGCTAGG | 0.04 |
| TGTCTCACGTGGATTA | 0.2 |
| TGGTGCACGTGCAAGA | 0.1 |

| Sequence | relative binding free energy [kcal/mol] |
| --- | --- |
| TTTTTCACGTGAGAGA | 0.35 |
| ATAAACACGTGGTGGA | -0.08 |
| ATAGTCACGTGAGTGC | 0.38 |
| AAGATCACGTGAGGTG | 0.38 |
| GTTCCCACGTGGGTGT | -0.21 |
| CGTAACACGTGTATTT | 0.1 |
| TTTGACACGTGTGCCG | 0.14 |
| GTAGTCACGTGTGCGG | 0.12 |
| CGGCTCACGTGGAGTT | 0.18 |
| TATTTCACGTGAATAT | 0.22 |
| CGGCACACGTGTTGGG | 0.07 |
| TAAGTCACGTGAAAGA | 0.3 |
| TTTATCACGTGCGGGC | 0.11 |
| ATATGCACGTGGCAGG | -0.25 |
| GTCCTCACGTGTGTTG | 0.16 |
| GTAATCACGTGCTGTT | 0.12 |
| TATTACACGTGTGAGA | 0.27 |
| TGTGACACGTGAGCTG | 0.19 |
| CTTTGCACGTGGGAAT | -0.1 |
| AAGTACACGTGGGGCG | -0.11 |
| TGTTTCACGTGGTAGT | 0.31 |
| CATCACACGTGTGGGT | 0.26 |
| TCGACCACGTGTGGGG | -0.12 |

| Sequence | relative binding free energy [kcal/mol] |
| --- | --- |
| GATTTCACGTGCGAGG | 0.29 |
| CGCGGCACGTGACGGT | 0.08 |
| GCTAGCACGTGGGGAT | -0.07 |
| AATGGCACGTGGGGTT | -0.13 |
| GTAGCCACGTGGAGTT | -0.04 |
| AAAATCACGTGTTTAT | 0.21 |
| AGTCTCACGTGTTAGT | 0.17 |
| CAGGGCACGTGTGCTG | -0.13 |
| GGTCGCACGTGGATGT | 0.05 |
| TAGAGCACGTGGTGGA | -0.15 |
| TTTCTCACGTGGTGAG | 0.23 |
| TGGATCACGTGGATAA | 0.3 |
| TGGATCACGTGCGTGG | -0.05 |
| GATGTCACGTGGGACA | 0.08 |
| TTGCGCACGTGACAGG | 0.06 |
| TATCTCACGTGTATGG | 0.25 |
| CGAGTCACGTGTTGAG | 0.12 |
| CGTTACACGTGGAATG | 0.23 |
| GGATTCACGTGTTCTT | 0.29 |
| GCGTGCACGTGTTGGA | 0.04 |
| ATGCACACGTGGGGTT | -0.21 |
| AGAAGCACGTGAGTTA | 0.24 |
| CGTTGCACGTGGGGTT | -0.15 |
